# Experimental data from paper PMC4336329 (PLoS ONE, 2015).
# Screen size: about 310,000 compounds; about 2,200 (0.71%) showed an effect of 50% or more. Effects have a minus sign here. This is one part of the list.
# Biological target: human ether-à-go-go-related gene (hERG) potassium channel (human, UniProt Q12809)
# Experiment: primary screen, population patch clamp on CHO cells stably expressing hERG
# Sequence of human ether-à-go-go-related gene (hERG) potassium channel (Q12809 whole entry, looked up): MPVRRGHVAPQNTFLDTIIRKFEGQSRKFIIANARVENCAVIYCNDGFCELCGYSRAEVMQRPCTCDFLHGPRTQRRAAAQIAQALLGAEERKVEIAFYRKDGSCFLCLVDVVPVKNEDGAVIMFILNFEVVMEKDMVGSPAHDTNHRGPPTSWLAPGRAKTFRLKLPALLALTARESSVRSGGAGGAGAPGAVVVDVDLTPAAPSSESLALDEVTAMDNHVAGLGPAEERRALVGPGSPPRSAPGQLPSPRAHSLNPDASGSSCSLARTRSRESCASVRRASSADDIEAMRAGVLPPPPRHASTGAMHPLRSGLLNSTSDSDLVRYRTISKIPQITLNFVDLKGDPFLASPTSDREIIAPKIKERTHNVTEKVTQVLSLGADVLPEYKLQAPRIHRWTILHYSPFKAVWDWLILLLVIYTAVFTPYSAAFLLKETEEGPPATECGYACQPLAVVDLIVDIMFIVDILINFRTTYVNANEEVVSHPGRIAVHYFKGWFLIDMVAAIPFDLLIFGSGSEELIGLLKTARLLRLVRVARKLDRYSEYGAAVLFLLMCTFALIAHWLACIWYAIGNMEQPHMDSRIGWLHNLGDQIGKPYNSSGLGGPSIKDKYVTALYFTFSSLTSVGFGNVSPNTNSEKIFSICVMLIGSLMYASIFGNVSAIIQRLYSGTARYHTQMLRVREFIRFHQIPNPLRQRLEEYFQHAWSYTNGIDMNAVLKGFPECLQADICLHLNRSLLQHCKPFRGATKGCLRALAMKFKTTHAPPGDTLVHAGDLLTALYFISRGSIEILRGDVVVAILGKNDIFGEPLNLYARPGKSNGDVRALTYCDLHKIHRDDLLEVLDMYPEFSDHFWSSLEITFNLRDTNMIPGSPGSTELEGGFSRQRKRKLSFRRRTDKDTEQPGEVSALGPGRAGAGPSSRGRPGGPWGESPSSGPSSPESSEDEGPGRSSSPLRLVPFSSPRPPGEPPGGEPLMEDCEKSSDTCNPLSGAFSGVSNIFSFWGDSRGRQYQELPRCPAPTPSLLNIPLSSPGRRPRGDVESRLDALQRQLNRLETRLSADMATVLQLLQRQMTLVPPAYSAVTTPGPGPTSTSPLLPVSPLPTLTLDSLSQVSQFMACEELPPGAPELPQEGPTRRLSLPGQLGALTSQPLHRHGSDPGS
row,Compound,"hERG current change (%, negative = inhibition) at 1uM [%]"
1,Cc1nnc(SCc2cccc([N+](=O)[O-])c2)[nH]c1=O,7.89
2,COc1ccc(-c2nc(N/N=C(\C)c3ccc(O)cc3)c3ccccc3n2)cc1,7.19
3,O=C(CN1CCC(C(=O)c2ccc(F)cc2)CC1)Nc1ccccc1Cl,7.94
4,CC(C)c1ccc(NC(=O)CSc2nc3ccsc3c(=O)n2CCC(=O)O)cc1,15.4
5,Cc1ccc(NC(=O)c2ccccc2N(C)S(C)(=O)=O)cc1C,11.4
6,O=C1CSc2ccccc2N1Cc1ccccc1F,-16.8
7,CC(C)(C)c1ccc(-c2cc(-c3ccccc3O)[nH]n2)cc1,16.8
8,O=C(Nc1ccc2c(c1)OCO2)c1cc2n(n1)C(C(F)(F)F)CC(c1ccccc1)N2 (stereo not shown),7.57
9,Cc1nn(C(C)C(=O)NC(C)CCc2ccccc2)c(=O)c2cc3occc3n12 (stereo not shown),-0.955
10,O=C(CCSCc1ccccc1)Nc1ccc2c(c1)OCCO2,7.61
11,CC1Nc2ncnc(N3CCOCC3)c2N(Cc2ccc(Cl)cc2)C1=O.O=C(O)C(F)(F)F (stereo not shown),4.45
12,Cc1ccc(-c2nnc(C)c(N3CCCC3)n2)cc1,9.17
13,CCC(C)(C)n1nnnc1C(c1ccc(O)c(OC)c1)N1CCc2ccccc2C1.Cl (stereo not shown),-12.7
14,COc1ccc(NC(=O)C2CCCN2C(=O)OCc2ccccc2)c(OC)c1 (stereo not shown),0.754
15,Cc1nn(-c2ccccc2)c(C)c1NC(=O)COc1ccc(F)cc1Cl,0.849
16,CCOC(=O)N1CCN(C(=S)NC(=O)c2cncc(Br)c2)CC1,5.31
17,CC(=O)Nc1ccc(NC(=O)C2CCN(C(=O)c3cccs3)CC2)cc1,10
18,Cc1noc(NS(=O)(=O)c2ccc(NC(=O)c3ccc(N(C)C)cc3)cc2)c1C,9.87
19,N/C(=N\OC(=O)c1cccc(Cn2cc(C(F)(F)F)ccc2=O)c1)c1ccc(Cl)cc1,11.4
20,Cc1[nH]c2ccccc2c1C(C[N+](=O)[O-])c1cccs1 (stereo not shown),7.6
21,CS(=O)(=O)N(CC(N)=O)c1ccc2c(c1)OCO2,12.3
22,O=C(Cc1cccs1)N(Cc1cccs1)C1(C(=O)NC2CCCC2)CCCCC1,10.6

row,Compound,"hERG current change (%, negative = inhibition) at 1uM [%]"
1,COc1ccc(/C=N/Nc2cc(=O)n(C)c(=O)n2C)cc1OC,10.1
2,CC1CC(C)CN(C(=O)COC(=O)Cc2c[nH]c3ccccc23)C1 (stereo not shown),12.2
3,COc1ccc(N2CCN(C(=O)C3CCCN(S(=O)(=O)c4ccc(F)cc4)C3)CC2)cc1 (stereo not shown),-7.16
4,CC(=O)NC(CC(=O)N(C)Cc1cccc(Cl)c1Cl)c1ccccc1 (stereo not shown),6.88
5,O=C(CN1CCN(C(=O)c2ccccc2)CC1)Nc1ccccc1,3.18
6,O=C(c1cccs1)N(Cc1ccc(Cl)cc1)C1CCS(=O)(=O)C1 (stereo not shown),-0.0056
7,Cc1csc(=Nc2c(C)n(C)n(-c3ccccc3)c2=O)n1-c1ccccc1,16
8,Cc1ccc(/C=N/NC(=O)C2(O)c3ccccc3-c3ccccc32)o1,4.7
9,Cn1c(=O)c([N+](=O)[O-])c(NCC2CCCO2)c2ccccc21 (stereo not shown),6.92
10,C/C=N\NC(=O)COc1cc(C)ccc1C,10.4
11,O=C(CCC(=O)N1CCN(S(=O)(=O)c2ccc(Cl)cc2)CC1)NC1CCCc2ccccc21 (stereo not shown),-11.7
12,Cc1ccc(C)c(Nc2nc3c(S(=O)(=O)c4ccccc4)nnn3c3ccccc23)c1,4.12
13,CC(=O)Nc1ccc(C(=O)CSc2nnnn2C2CCCC2)cc1,11.3
14,CN(CCCS(=O)(=O)[O-])c1ccc(/C=C/c2ccc3ccccc3[n+]2C)cc1,16.4
15,O=S(=O)(Nc1ccccc1)c1ccc(S(=O)(=O)N2CCCC2)cc1,-7.07
16,CCc1ccc(/C=C2/SC(=S)N(CCC(=O)Nc3ccc(C(=O)O)cc3)C2=O)cc1,15.3
17,CCc1nc2ccccc2c(C(=O)Nc2ccc(C)cc2)c1C,16.4
18,CCCCC(=O)Nc1nnc(SCC(=O)NC2CCCC2)s1,17.1
19,O=C(CSc1ccc2nnc(CCNC(=O)c3ccc(F)cc3)n2n1)NCc1ccco1,9.13
20,Cl.c1ccc(Cn2nnnc2CN2CCCC2)cc1,10.1
21,Cc1cc(C)nc(N2CCC(C(=O)Nc3ccc4c(c3)OCCO4)CC2)n1,8.89
22,COc1ccc(OC)c(S(=O)(=O)NCc2cn3c(C)csc3n2)c1,12.3

row,Compound,"hERG current change (%, negative = inhibition) at 1uM [%]"
1,CC1(c2ccccc2Cl)NC(=O)N(CC(=O)NCCC2=CCCCC2)C1=O (stereo not shown),-11.3
2,COc1ccc(NC(=O)c2ccccc2NC(=O)CSc2ccccc2)cc1,16.3
3,CC(=O)Nc1ccc(S(=O)(=O)N(C)CC(=O)OCC(=O)Nc2cccnc2Cl)cc1,9.62
4,CCC(Oc1cc(Cl)ccc1Cl)C(=O)N1CCCN(C)CC1 (stereo not shown),12.4
5,Cc1ccc(N(C(=O)c2csnn2)C(C(=O)NCc2ccccc2)c2ccccn2)cc1 (stereo not shown),-6.33
6,NC(N)=N/N=C/c1ccc(N2CCOCC2)cc1.O=[N+]([O-])O,13.6
7,CC(C)C(=O)Nc1cccc(C(=O)Nc2ccc3c(c2)OCO3)c1,6.5
8,COc1cccc(N2CCN(C(=O)c3ccc4nc(N5CCC(C)CC5)sc4c3)CC2)c1,0.61
9,COc1ccc(NS(=O)(=O)c2ccc(NS(=O)(=O)c3cccs3)cc2)cc1,15.2
10,COC(=O)c1ccc(NC(=O)Cn2cnc3c(nnn3-c3cccc(OC)c3)c2=O)cc1,2.01
11,O=C(COC(=O)c1cccc(Br)c1)Nc1ccc2[nH]c(=O)[nH]c2c1,20.1
12,CN(C)c1cccc(C(=O)N/N=C/c2ccoc2)c1,9.45
13,COC(=O)Cn1cc(/C=C2\C(=O)NC(=O)N(c3ccc(OC)cc3)C2=O)c2ccccc21,11.1
14,CC1CCCC(C)N1/N=C/c1cccc(Br)c1 (stereo not shown),7.83
15,CC(C)C(C(=O)O)N1C(=O)/C(=C/C=C/c2ccco2)SC1=S (stereo not shown),15.6
16,CC(C)CCN1CCN(Cc2ccc(Sc3nncn3C)o2)CC1CCO (stereo not shown),13.8
17,O=C(CN1C(=O)CCC1=O)Nc1nc(-c2ccccn2)cs1,20
18,CC1CCN(CCOc2ccc(C(=O)c3ccccc3)cc2)CC1.O=C(O)C(=O)O,3.49
19,Cc1cccc(NC(=O)C2CCN(S(=O)(=O)c3cccc4nsnc34)CC2)n1,6.3
20,CC(CC(=O)Nc1nccs1)c1ccccc1 (stereo not shown),13.8
21,O=C(COC(=O)c1cccs1)NC1CCCCC1,9.01
22,Cc1ccc(OCC(=O)N/N=C\c2ccncc2)c(C)c1,0.981

row,Compound,"hERG current change (%, negative = inhibition) at 1uM [%]"
1,CN(CC(=O)NCC1CCCCC1)S(=O)(=O)c1ccc(Cl)cc1,16.2
2,CCOC(=O)/C(=N\Nc1ccccc1)N1CC1,20.3
3,CCCCCN(C(=O)CCC(=O)OCC(=O)N1C(C)CCCC1C)c1c(N)n(CCCC)c(=O)[nH]c1=O (stereo not shown),12.8
4,CC1CCCCN1C(=S)NC(=O)c1cc(Br)ccc1Cl (stereo not shown),0.369
5,Cc1cc(C(=O)OCC(=O)Nc2cc(S(=O)(=O)N(C)C)ccc2Cl)c2ccccc2n1,8.57
6,CN(C(=O)c1ccc(NC(=O)Cc2ccc(NC(=O)C3CCCN(C(=O)C4CCC4)C3)cc2)cc1)C1CC1 (stereo not shown),7.35
7,O=C(Nc1sc2c(c1C(=O)c1ccc(Cl)cc1)CCCC2)c1cccnc1,8.92
8,c1ccc(CSc2nnc(-c3ccncc3)o2)cc1,-4.89
9,CCOC(=O)C1(Cc2cccc(Cl)c2)CCCN(CCO)C1 (stereo not shown),5.84
10,CC(=O)c1ccc(N=Nc2c(C)[nH]n(-c3ccccc3)c2=O)cc1,10.2
11,O=C(COc1ccc(S(=O)(=O)N2CCCCC2)cc1)NCc1ccncc1,-17
12,CC1CCCN(S(=O)(=O)c2ccc(S(=O)(=O)NC(C)c3cccs3)cc2)C1 (stereo not shown),3.82
13,CC1=CS(=O)(=O)CC1SC1=NC(C)=N[NH2+]1.[Br-] (stereo not shown),14.1
14,Cc1ccc(/C=N/N=C2/NC(=O)CS2)o1,12
15,CCOC(=O)C1CCN(C(=S)Nc2cccc(C)c2C)CC1,12.3
16,COc1ccc(-n2c(CNc3ccc(C)cc3)nnc2SCC(=O)Nc2nc(-c3ccccc3)cs2)cc1,6.38
17,Cc1ccc(NC2=CC(=O)CC(C)(C)C2)cc1F,8.11
18,CN1CCN(c2ccc(NC(=O)c3cc4ccccc4o3)cc2)CC1,-14.8
19,O=C(NCc1cccs1)C1CCCN1C(=O)Nc1ccccc1[N+](=O)[O-] (stereo not shown),0.73
20,Cc1cc(Cl)ccc1OCC(=O)NCC(c1cccs1)N1CCOCC1 (stereo not shown),-1.73
21,O=[N+]([O-])c1ccc(Cl)cc1Sc1nc2ccccc2o1,6.27
22,O=C(O)CN1C(=O)SC(Nc2ccc(C(=O)O)cc2)C1=O (stereo not shown),5.85
